Experimental data reported in PubChem BioAssay AID1347077 (National Center for Advancing Translational Sciences (NCATS), 2019).
The whole screen tested about 44,000 compounds, of which fewer than 10 were called active. Inconclusive means that the source gave no clear call. Such entries were picked first, then a sample of the others. Calls come from the whole dose curve; as a rule, active = well fitted activation curve with a large enough effect; inconclusive = small, poorly fitted or top-dose-only effect, or another doubt; inactive = no such curve, though single readings can be large or run the other way. Potencies beside an inconclusive call are fits to weak or partial responses and may not hold up.

Biological target: Beta-2 adrenergic receptor (Homo sapiens) (UniProt P07550)
Chain of UniProt P07550 (P07550 whole entry, looked up): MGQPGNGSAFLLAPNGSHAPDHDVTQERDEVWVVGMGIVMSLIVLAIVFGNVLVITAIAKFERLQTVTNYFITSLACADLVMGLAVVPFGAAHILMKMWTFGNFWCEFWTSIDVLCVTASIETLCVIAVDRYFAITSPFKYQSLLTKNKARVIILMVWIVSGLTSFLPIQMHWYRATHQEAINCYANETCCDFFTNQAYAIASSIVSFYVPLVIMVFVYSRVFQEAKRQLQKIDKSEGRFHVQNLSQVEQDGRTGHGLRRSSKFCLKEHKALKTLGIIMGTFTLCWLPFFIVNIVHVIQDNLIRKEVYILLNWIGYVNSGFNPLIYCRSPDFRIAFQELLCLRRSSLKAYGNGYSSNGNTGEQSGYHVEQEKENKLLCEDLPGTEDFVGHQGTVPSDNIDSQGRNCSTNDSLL
Test: qHTS assay of beta-arrestin-biased ligands of beta2-adrenergic receptor: NCGC Sytravon Library Screen
Settings: HTLA Tango cells, beta-arrestin recruitment, luciferase luminescence, 18 h; series mostly up to 46.1 µM
In short: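 Tango cells expressing recombinant beta2-AR and beta-arrestin were treated with compounds (up to 46 microM titration) in DMEM with 1% FBS for 18 hr at 37 degrees C. Beta-arrestin recruitment drove tTA-dependent luciferase, read by luminescence; curves were fitted and classed.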
Potency is the fitted concentration of half-maximal effect; tags give direction and shape of the fitted curve.

Potency, inactive:
Cc1ccc(NCc2cccn2-c2nnc(N3CCC(C(=O)NCc4ccc(OC(C)C)cc4)CC3)s2)cc1
O=C(Nc1cccc(Cl)c1)c1c(NC(=O)C(F)(F)F)sc2c1CCCC2
CC(C)CCNC(=O)c1c[nH]c2ccc(S(=O)(=O)Nc3cccc(C(F)(F)F)c3)cc2c1=O
Cc1cccc(CNC(=O)c2ccc(-c3nc(CS(=O)(=O)c4ccccc4)c(C)o3)cc2)c1
Cc1ccc2c(CNCc3cccs3)c(C(=O)O)n(Cc3ccc(F)cc3)c2c1
COc1ccc(-c2cc(C(F)(F)F)nc(SCC(=O)NC(C)c3ccccc3)n2)cc1 (stereo not given)
COc1ccc(-c2noc(C3CC(=O)N(c4ccccc4)C3)n2)c(OC)c1 (stereo not given)
CCc1nn2c(=O)cc(COC(=O)c3ccccc3NC(=O)C3CCCCC3)nc2s1
COc1ccc(OC)c(CNC(=O)Nc2cn(CC(C)C)c(=O)c3ccccc23)c1
O=C(Cn1nnnc1-c1ccccc1F)Nc1ccc(OC(F)(F)F)cc1
COc1cccc(/C=C/c2nc(C#N)c(N3CCC(C(N)=O)CC3)o2)c1
O=C(CN1C(=O)CCSc2ccccc21)Nc1ccc(C(F)(F)F)cc1
CCS(=O)(=O)c1cccc(C(=O)Nc2ccc(-c3nc4ccccc4s3)c(O)c2)c1
O=C(Nc1ccc(F)cc1F)N1CCN(c2ccc(Cl)c(Cl)c2)CC1
CNS(=O)(=O)c1cn(CC(=O)Nc2ccc(OC)c(Cl)c2)cc1S(=O)(=O)NC
CCC(C(=O)Nc1ccc(C(C)C)cc1)n1nc(C)n2c(cc3cc(C)ccc32)c1=O (stereo not given)
CCC(C)Sc1oc(-c2ccco2)nc1S(=O)(=O)c1ccc(Cl)cc1 (stereo not given)
COc1ccccc1-c1cc2nc(C)c(CCC(=O)Nc3ccc(Br)c(C)c3)c(C)n2n1
COc1ccc(-c2cc3nc(N)cc(=O)n3[nH]2)cc1
CCCCc1nn2c(=O)cc(COC(=O)c3cccc(NC(=O)COc4ccccc4)c3)nc2s1
O=C(Nc1nnc(S(=O)(=O)N2CCOCC2)s1)c1cccc(Br)c1
Cc1nn(Cc2ccccc2Cl)c(C)c1NC(=O)c1cc(C(C)C)on1
Cc1ccc(NC(=O)C2CCN(S(=O)(=O)c3cccc4nonc34)CC2)c(Cl)c1
CC(Nc1ncnc2c1cnn2-c1cccc(Cl)c1)c1ccccc1 (stereo not given)
Cc1ccc(NC(=O)C2CCCN2S(=O)(=O)c2ccc3c(c2)n(C)c(=O)c(=O)n3C)cc1 (stereo not given)
CCOC(=O)c1c(NC(=O)COc2ccc(OC)cc2)sc(C(=O)N(CC)CC)c1C
CC(=O)N1CCCc2cc(S(=O)(=O)N3CCC(C(=O)Nc4ccc(C)cc4Cl)CC3)ccc21

Potency, inconclusive:
COc1ccc(S(=O)(=O)N(CC(=O)NCc2ccccc2OC)c2ccc(C)cc2)cc1 17.8 µM [activator, partial curve, poor fit]
CCOc1cc(Cn2c(-c3ccc(O)c(OCC)c3)nc3ccccc32)ccc1O 35.5 µM [activator, single point]
Cc1cc(C)cc(NS(=O)(=O)c2ccc3[nH]cc(C(=O)N4CCCCC4)c(=O)c3c2)c1 3.55 µM [activator, single point]
Cc1ccc(-n2c(=O)c3oc4ccccc4c3n(Cc3ccccc3)c2=O)cc1C 31.6 µM [activator, partial curve, poor fit]
Cc1ccc(Cn2ccn(Cc3ccc(C)cc3)c(=O)c2=O)cc1 17.8 µM [activator, single point]
Cc1cc(-n2c(SCc3ccccc3F)nc3[nH]ncc3c2=O)ccc1Cl 11.2 µM [activator, partial curve]
Cc1cccc(C)c1OCc1nc2c3cnn(-c4cccc(F)c4)c3ncn2n1 22.4 µM [activator, single point]
CN1C(=O)c2ccccc2Sc2ccc(NC(=O)Cc3ccc(Cl)cc3)cc21 28.2 µM [activator, single point]
CSc1ccc(C2c3c(-c4ccccc4O)n[nH]c3C(=O)N2Cc2ccncc2)cc1 (stereo not given) 6.31 µM [activator, partial curve]
O=C(CSc1nc2c([nH]c3ccccc32)c(=O)n1-c1ccccc1F)Nc1cccc(Cl)c1 31.6 µM [activator, partial curve, poor fit]
COc1ccc(-c2noc(CSc3nnc(-c4ccncc4)n3-c3ccc(C)c(C)c3)n2)cc1 35.5 µM [activator, single point]
COc1ccc(NC(=O)/C=C\C(=O)N(c2ccc(C(C)C)cc2)C(C(=O)NCc2ccco2)c2ccc(F)cc2)cc1 (stereo not given) 14.1 µM [activator, partial curve]
COc1ccc(NC(=O)c2c(C)oc3ccc(O)c(CN4CCN(Cc5ccccc5)CC4)c23)cc1 7.08 µM [activator, full curve, poor fit]
CCc1cccc(NC(=O)CSc2ncccc2C(=O)Oc2ccccc2Cl)c1 31.6 µM [activator, partial curve, poor fit]
O=C1CSC2(C(=O)N(Cc3ccccc3)c3ccccc32)N1c1ccc(Cl)cc1 (stereo not given) 17.8 µM [activator, single point]
Cc1ccc(CSC2=Nc3ccccc3C3=NC(CC(=O)NC4CCCCC4)C(=O)N23)cc1 (stereo not given) 20 µM [activator, single point]
COc1ccc(Cl)cc1NC(=O)c1cn(C2CCCC2)c(=O)c2c1c1ccccc1n2C 31.6 µM [activator, partial curve, poor fit]
O=C(CCCc1ccccc1)NC1CC(=O)N(c2cccc(F)c2)C1 (stereo not given) 35.5 µM [activator, single point]
O=C(NCc1ccccc1Cl)c1ccccc1NC(=O)c1nsc2ccccc12 31.6 µM [activator, partial curve, poor fit]
Cc1ccc(-n2c(=O)c3c(c4cc(C)ccc4n3C)n(CC(=O)Nc3cc(C)cc(C)c3)c2=O)cc1 6.31 µM [activator, single point]
COc1ccccc1Nc1c2c(nc3ccc(NC(=O)c4cccc(F)c4)cc13)CCCC2 5.62 µM [activator, single point]
CSc1ncc(Cl)c(C(=O)Nc2c(C(=O)c3ccc(C)cc3)oc3ccccc23)n1 6.31 µM [activator, single point]
CCOC(=O)c1ccn(-c2nc(-c3cccc(OC)c3)cc(C(F)(F)F)n2)n1 31.6 µM [activator, single point]
COc1ccc(-n2c(=O)c3c4c(sc3n3c(SC(C)C)nnc23)COC(C(C)C)C4)cc1 (stereo not given) 3.55 µM [activator, full curve]
COc1ccc(-n2c(=O)c3c4c(sc3n(CC(=O)C(C)(C)C)c2=O)CCCC4)c(OC)c1 31.6 µM [activator, single point]
COCc1cc(C)nc2sc3c(c12)NC(c1ccc(NC(C)=O)cc1)N(c1ccc(C)cc1)C3=O (stereo not given) 25.1 µM [activator, partial curve, poor fit]
CCOC(=O)c1cc(NC(=O)c2ccc(C)cc2)c(=O)n2c1oc1ccc(Cl)cc12 20 µM [activator, single point]
COc1ccccc1NC(=O)c1cnc(SCC(=O)N2CCCc3ccccc32)n(C)c1=O 35.5 µM [activator, single point]
CCOC(=O)c1c(C)sc(-c2c(-c3cc(C)ccc3C)[nH]c3c2c(=O)n(C)c(=O)n3C)c1O 35.5 µM [activator, single point]
CC(Oc1ccc(F)cc1)C(=O)Nc1nc(-c2ccc(F)cc2)ns1 (stereo not given) 3.55 µM [activator, partial curve, poor fit]
Cc1ccc(NC(=O)N2CCN3CCCCC3C2)cc1F (stereo not given) 35.5 µM [activator, single point]
COc1cccc(-n2c(SCC(=O)Nc3ccc(F)cc3F)nc3c([nH]c4ccccc43)c2=O)c1 7.94 µM [activator, partial curve]
COc1ccc(CCN2C(=O)c3[nH]nc(-c4ccccc4O)c3C2c2cccc(OC)c2)cc1 (stereo not given) 3.98 µM [activator, partial curve, poor fit]
Cc1ccc(NC(=O)CSc2nc(C)c(Cc3ccccc3)c(=O)[nH]2)cc1C 20 µM [activator, partial curve, poor fit]
O=C(Nc1ccc(F)cc1)c1ncn(-c2ccccc2)n1 5.62 µM [activator, single point]
Cc1sc(C2C(C#N)=C(N)N(c3cccc(Cl)c3)C3=C2C(=O)CCC3)cc1CN1CCOCC1 (stereo not given) 28.2 µM [activator, single point]
Cc1cc2c(n1-c1ccc(C(=O)NCC(C)c3ccccc3)cc1)CCCC2 (stereo not given) 31.6 µM [activator, single point]
COc1ccc(C)cc1NC(=O)c1ccc2c(c1)N(Cc1cccc(Cl)c1)C(=O)c1ccccc1S2=O (stereo not given) 15.8 µM [activator, partial curve, poor fit]
